Source: the supplement of paper PMC4604168 (melanoma cell lines)
Some of the results follow. Single values are uncertain, as repeats are few or missing.

Columns and labels:
Assay in all cases: cell count relative to DMSO control; melanoma cells; higher = more viable cells
Conditions in all cases: library dose: low library concentration; 72 h; first compound 0.4 µM
MZ2-MEL = system: MZ2-MEL
MeWo = system: MeWo
RPMI7951 = system: RPMI7951
RVH-421 = system: RVH-421
SkMel28 = system: SkMel28
SkMel2 = system: SkMel2
SkMel30 = system: SkMel30
SkMel5 = system: SkMel5
UACC257 = system: UACC257
UACC62 = system: UACC62
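Note: cell number obtained by counting DAPI-stained nuclei in high-throughput microscope images with image analysis software, screen run in 1,536-well plates.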

| SMILES | cell count (MZ2-MEL) [%] | cell count (MeWo) [%] | cell count (RPMI7951) [%] | cell count (RVH-421) [%] | cell count (SkMel28) [%] | cell count (SkMel2) [%] | cell count (SkMel30) [%] | cell count (SkMel5) [%] | cell count (UACC257) [%] | cell count (UACC62) [%] |
| --- | --- | --- | --- | --- | --- | --- | --- | --- | --- | --- |
| Cn1sc(=O)n(Cc2ccccc2)c1=O + CCN(CC)CCCCNc1ncc2cc(-c3cc(OC)cc(OC)c3)c(NC(=O)NC(C)(C)C)nc2n1 [PD173074] (partner dose 0.1 µM) | 106 | 102 | 100 | 91 | 106 | 103 | 116 | 102 | 115 | 89 |
| C[C@@H](N)c1ccc(C(=O)Nc2ccnc3[nH]ccc23)cc1 + N#Cc1c(O)c2c(-c3ccc(-c4ccccc4O)cc3)csc2[nH]c1=O [A769662] (partner dose 2 µM) | 69.5 | 79 | 76.1 | 85.2 | 60.3 | 100 | 129 | 71.2 | 59.4 | 77.2 |
| C[C@@H](N)c1ccc(C(=O)Nc2ccnc3[nH]ccc23)cc1 + CCc1ccc(CCOc2ccc(CC3SC(=O)NC3=O)cc2)nc1 [pioglitazone] (partner dose 2 µM) | 79.4 | 89.4 | 70.8 | 84.6 | 75.4 | 107 | 114 | 84.9 | 79.4 | 92.7 |
| Cn1sc(=O)n(Cc2ccccc2)c1=O + CO[C@@H]1[C@H](N(C)C(=O)c2ccccc2)C[C@H]2O[C@]1(C)n1c3ccccc3c3c4c(c5c6ccccc6n2c5c31)C(=O)NC4 [Midostaurin] (partner dose 0.08 µM) | 104 | 90.3 | 87.5 | 122 | 109 | 84 | 103 | 87.5 | 84.1 | 90.9 |
| CCCCCCCCCCCCCCCCCCOP(=O)([O-])OC1CC[N+](C)(C)CC1 [Perifosine] + C=CCn1c(=O)c2cnc(Nc3ccc(N4CCN(C)CC4)cc3)nc2n1-c1cccc(C(C)(C)O)n1 [MK1775] (partner dose 0.02 µM) | 100 | 94.2 | 40.7 | 70.8 | 95 | 90.3 | 75.2 | 76.4 | 80.9 | 78 |
| CCCCCCCCCCCCCCCCCCOP(=O)([O-])OC1CC[N+](C)(C)CC1 [Perifosine] + O=c1cc(-c2cccc3c2Sc2ccccc2S3)oc(N2CCOCC2)c1 [KU55933] (partner dose 1 µM) | 105 | 97 | 51.6 | 119 | 84.1 | 98.7 | 87.5 | 97 | 96.4 | 98.1 |
| C[C@@H](N)c1ccc(C(=O)Nc2ccnc3[nH]ccc23)cc1 + COc1cc(N2CCC(N3CCN(C)CC3)CC2)ccc1Nc1ncc(Cl)c(Nc2ccccc2S(=O)(=O)C(C)C)n1 [NVP-TAE684] (partner dose 0.08 µM) | 81.6 | 85.3 | 80.5 | 131 | 68.5 | 109 | 116 | 79.1 | 77.9 | 99.7 |
| Cn1sc(=O)n(Cc2ccccc2)c1=O + O=C(CCCCCCC(=O)Nc1ccccc1)NO [vorinostat] (partner dose 0.08 µM) | 97.8 | 94 | 99 | 122 | 83.1 | 104 | 105 | 89.7 | 93.5 | 76.6 |
| C[C@@H](N)c1ccc(C(=O)Nc2ccnc3[nH]ccc23)cc1 + Cc1cc(N2CCOCC2)cc2[nH]c(-c3c(NC[C@@H](O)c4cccc(Cl)c4)cc[nH]c3=O)nc12 [BMS536924] (partner dose 0.2 µM) | 85.8 | 81.9 | 78.8 | 72.4 | 77 | 93.8 | 105 | 72.8 | 60.7 | 78 |
| Cn1sc(=O)n(Cc2ccccc2)c1=O + C=CCn1c(=O)c2cnc(Nc3ccc(N4CCN(C)CC4)cc3)nc2n1-c1cccc(C(C)(C)O)n1 [MK1775] (partner dose 0.02 µM) | 112 | 107 | 111 | 111 | 96.4 | 93.9 | 87.4 | 96.6 | 73.7 | 92.3 |
| Cn1sc(=O)n(Cc2ccccc2)c1=O + O=S(=O)(c1ccccc1)N(CC(F)(F)F)c1ccc(C(O)(C(F)(F)F)C(F)(F)F)cc1 [T0901317] (partner dose 1.4 µM) | 101 | 87.6 | 98.2 | 95.7 | 95.4 | 98.7 | 93.7 | 84.1 | 84.6 | 77.6 |
| CCCCCCCCCCCCCCCCCCOP(=O)([O-])OC1CC[N+](C)(C)CC1 [Perifosine] + CN(C)S(=O)(=O)c1ccc2c(c1)/C(=C/c1cc3c([nH]1)CCCC3)C(=O)N2 [SU6656] (partner dose 0.4 µM) | 105 | 85.5 | 88.9 | 98.2 | 92.9 | 101 | 90.2 | 80 | 82.1 | 83.3 |
| CCCCCCCCCCCCCCCCCCOP(=O)([O-])OC1CC[N+](C)(C)CC1 [Perifosine] + Cc1cc(N2CCOCC2)cc2[nH]c(-c3c(NC[C@@H](O)c4cccc(Cl)c4)cc[nH]c3=O)nc12 [BMS536924] (partner dose 0.2 µM) | 102 | 90.9 | 45.4 | 100 | 84.2 | 89.5 | 74.6 | 92.6 | 118 | 86.1 |
| Cn1sc(=O)n(Cc2ccccc2)c1=O + O=C(Nc1ccccc1)c1cc([N+](=O)[O-])ccc1Cl [GW9662] (partner dose 2 µM) | 100 | 100 | 108 | 107 | 90.7 | 104 | 96.3 | 108 | 89.2 | 91.5 |
| CCCCCCCCCCCCCCCCCCOP(=O)([O-])OC1CC[N+](C)(C)CC1 [Perifosine] + Oc1cc(-c2nc(-c3ccccc3)[nH]c2-c2ccncc2)ccc1Cl [L779450] (partner dose 0.2 µM) | 79.1 | 111 | 54.2 | 74.2 | 79.5 | 97.9 | 97.4 | 107 | 96.5 | 68.9 |
| C[C@@H](N)c1ccc(C(=O)Nc2ccnc3[nH]ccc23)cc1 + Cn1cncc1[C@@](N)(c1ccc(Cl)cc1)c1ccc2c(c1)c(-c1cccc(Cl)c1)cc(=O)n2C [tipifarnib] (partner dose 0.01 µM) | 91.7 | 80.7 | 74.9 | 60 | 81.7 | 87.5 | 98.9 | 91.5 | 68.1 | 76 |
| C[C@@H](N)c1ccc(C(=O)Nc2ccnc3[nH]ccc23)cc1 + Cc1cc(Nc2cc(N3CCN(C)CC3)nc(/C=C/c3ccccc3)n2)n[nH]1 [ENMD2076] (partner dose 0.04 µM) | 69.7 | 77.8 | 79.9 | 68.8 | 103 | 106 | 86.5 |  |  | 85.6 |
| CCCCCCCCCCCCCCCCCCOP(=O)([O-])OC1CC[N+](C)(C)CC1 [Perifosine] + COc1cc(N2CCC(N3CCN(C)CC3)CC2)ccc1Nc1ncc(Cl)c(Nc2ccccc2S(=O)(=O)C(C)C)n1 [NVP-TAE684] (partner dose 0.08 µM) | 101 | 76.9 | 38.8 | 121 | 79.2 | 83.6 | 65 | 76.1 | 64.4 | 69.4 |
| C[C@@H](N)c1ccc(C(=O)Nc2ccnc3[nH]ccc23)cc1 + O=C1NC(=O)/C(=C/c2ccc(-c3ccc(F)cc3O)o2)S1 [AS252424] (partner dose 1 µM) | 75.2 | 59.6 | 59.6 | 69.9 | 58 | 107 | 105 | 88.7 | 75.9 | 74.7 |
| C[C@@H](N)c1ccc(C(=O)Nc2ccnc3[nH]ccc23)cc1 + OCCn1cc(-c2cnc3nnn(Cc4ccc5ncccc5c4)c3n2)cn1 [PF04217903] (partner dose 1 µM) | 79.1 | 89.1 | 67.8 | 68.3 | 79.1 | 107 | 105 | 83.5 | 79.8 | 83.6 |
| CCCCCCCCCCCCCCCCCCOP(=O)([O-])OC1CC[N+](C)(C)CC1 [Perifosine] + COC(=O)c1sccc1S(=O)(=O)Nc1ccc(Nc2ccccc2)cc1OC [GSK0660] (partner dose 1 µM) | 99.5 | 101 | 92.3 | 108 | 87.1 | 101 | 69.3 | 91.6 | 99.9 | 85.9 |
| C[C@@H](N)c1ccc(C(=O)Nc2ccnc3[nH]ccc23)cc1 + O=C(Nc1cccc(Cl)c1)Nc1ncc(CCNc2ncnc3ccsc23)s1 [SNS314] (partner dose 0.0008 µM) | 85.4 | 80.9 | 90.4 | 69.8 | 108 | 96.9 | 111 | 97.2 | 71.9 | 84.5 |
| C[C@@H](N)c1ccc(C(=O)Nc2ccnc3[nH]ccc23)cc1 + CC(C)CCN1c2nc(Nc3cc(F)c(O)c(F)c3)ncc2N(C)C(=O)C1C [BID1870] (partner dose 0.2 µM) | 76.5 | 68.6 | 81.4 | 84.8 | 71 | 102 | 107 | 112 | 59.5 | 63.1 |
| CCCCCCCCCCCCCCCCCCOP(=O)([O-])OC1CC[N+](C)(C)CC1 [Perifosine] + CCN(CC)CCCCNc1ncc2cc(-c3cc(OC)cc(OC)c3)c(NC(=O)NC(C)(C)C)nc2n1 [PD173074] (partner dose 0.1 µM) | 108 | 101 | 103 | 122 | 88.1 | 104 | 127 | 111 | 93.9 | 95.7 |
| C[C@@H](N)c1ccc(C(=O)Nc2ccnc3[nH]ccc23)cc1 + CCN(CC)CCCCNc1ncc2cc(-c3cc(OC)cc(OC)c3)c(NC(=O)NC(C)(C)C)nc2n1 [PD173074] (partner dose 0.1 µM) | 68.1 | 95 | 65.2 | 88.3 | 73 | 100 | 91.7 | 82.5 | 74.6 | 83.3 |
| CCCCCCCCCCCCCCCCCCOP(=O)([O-])OC1CC[N+](C)(C)CC1 [Perifosine] + COc1cc2ncnc(Nc3ccc(Oc4ccccc4)cc3)c2cc1OC [SrcI1] (partner dose 2 µM) | 99.2 | 99.3 | 45.1 | 94.5 | 71.2 | 96.7 | 90.2 | 90.2 | 89.3 | 97.8 |
